# Experimental data as given in the supplement of paper PMC3334620.
# The full ranking holds about 33,000 sequences; the median of “E-score (-0.5 to 0.5)” is about -0.013, and the highest 2% start at about 0.3. The list shows a part of the results.
# Target: T1, Msn1 (UniProt P22148)
# T1 sequence: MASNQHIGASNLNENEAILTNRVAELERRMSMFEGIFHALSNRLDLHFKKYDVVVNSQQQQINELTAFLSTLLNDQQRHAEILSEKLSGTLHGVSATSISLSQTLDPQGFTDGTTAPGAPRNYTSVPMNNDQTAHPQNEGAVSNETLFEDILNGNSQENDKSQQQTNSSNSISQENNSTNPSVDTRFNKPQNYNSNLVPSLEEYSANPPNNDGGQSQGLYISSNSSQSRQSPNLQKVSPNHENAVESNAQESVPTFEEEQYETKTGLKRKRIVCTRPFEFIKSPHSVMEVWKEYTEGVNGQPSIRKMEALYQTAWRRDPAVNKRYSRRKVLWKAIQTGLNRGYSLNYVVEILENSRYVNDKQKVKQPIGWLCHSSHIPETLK
# Experiment: PBM E-score (8-mer binding enrichment) (E-score (-0.5 to 0.5)); higher = stronger / more preferred TF binding; most listed sequences are background and not binding sites
# Settings: protein concentration: 200 nM; construct: GST-full length
# Method in brief: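 Universal all-10-mer Agilent arrays, double-stranded by primer extension on fresh or once-stripped slides, were probed with about 100-200 nM GST-tagged yeast transcription factors made by PURExpress. Fluorescent anti-GST detected bound protein, and masliner normalised the scans. E-scores from the Universal PBM Analysis Suite were given to each ungapped eight-base word pooled with its reverse complement.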
row,Sequence,PBM E-score
1,TAACCAAA,0.0404
2,AAAAGGCT,-0.0222
3,CCGACATA,0.215
4,ACTAGGTA,-0.0065
5,TGACTAAA,0.0539
6,CTTGATGA,0.101
7,CTAAATAC,0.0783
8,CGTCGAAG,-0.0449
9,ACCTGTCG,0.00191
10,AGTGGTAA,0.0594
11,CGTCCATC,0.0943
12,CGAAGATC,-0.0505
13,ACCGTCGA,-0.00377
14,ATTGAGAA,0.163
15,GGCGTAAA,-0.0353
16,AATCCGTC,0.148
17,ACCCAAGC,-0.184
18,GAACGGGA,-0.0202
19,CGAAGAAG,0.0424
20,AGAAATCC,-0.0711
21,AGGGATTA,-0.0581
22,CCTGAGCA,0.0235
23,ACTACCAC,-0.137
24,AAACTCTT,-0.108
25,CTAGTGCC,-0.224

row,Sequence,PBM E-score
1,GACAAGGA,0.311
2,GTGGCGGA,-0.0759
3,CCTTGGAA,-0.156
4,AGGATACA,0.0732
5,ACAAGGCA,0.0594
6,CAGCCACG,-0.0651
7,AGTCTCAA,-0.0719
8,GAGTGGCA,-0.0971
9,ACTACCTG,-0.0515
10,GTACACAC,0.256
11,GAGCTCCA,-0.108
12,ACAAGTGT,0.181
13,ATAATTAA,0.234
14,AGCATCAC,-0.178
15,ACATGGAG,0.0174
16,GATCGGTA,0.0186
17,AAGACATT,0.414
18,GCACCGCC,-0.293
19,AGCAGGGC,-0.157
20,ACGATCTG,-0.105
21,CGCCCTGA,-0.118
22,CTGGTATC,-0.0417
23,GCATGAAA,0.0659
24,CGCCGATC,0.0102
25,TGGGACAA,0.471

row,Sequence,PBM E-score
1,GCCAAAAA,0.0349
2,ATAAACAC,0.0945
3,ACGAACAG,0.0486
4,AAGAACCG,0.101
5,CATCTCTA,0.0343
6,ACATTCCT,0.054
7,AGCCGAAC,-0.0919
8,CCCCCAAG,-0.172
9,CCAGCACG,-0.014
10,GCGGTTCA,-0.0339
11,GCAACCTA,-0.0979
12,GACCGCAA,0.0479
13,CTCAGGAC,0.243
14,ATGCACGA,-0.00947
15,CACAAACC,-0.135
16,AACTACAT,-0.0801
17,CCTCCAGG,-0.259
18,ACTTCTAT,0.0685
19,ATTTGCAG,0.0696
20,GCGTTCCA,-0.066
21,CCGCCCAA,-0.0952
22,AGGCGAAG,-0.158
23,CAGACGCC,-0.175
24,AGCGTGAT,0.0556
25,GTACGTCA,-0.039

row,Sequence,PBM E-score
1,CTACCTTA,-0.228
2,TACAGGAA,0.0582
3,GAGTTCTA,-0.0786
4,ATGATTCG,0.00766
5,CCTTTCAC,-0.0327
6,ATTGGCCG,-0.0555
7,CCTTGGCC,-0.195
8,CAACGCTC,0.00214
9,CAGAGGAG,-0.212
10,GCGTTTCC,-0.0276
11,AGTCGTAG,-0.0802
12,GCATATTA,0.0109
13,AGTACTTC,0.0929
14,GCCCTGTA,0.00768
15,GTTTTCTA,0.164
16,ATAATCCG,0.0113
17,GCAAAAAA,0.21
18,ATTCCGGA,0.313
19,GAAAAAGA,0.12
20,GCGTTACA,-0.0849
21,GCAGCAGA,-0.0193
22,ATCTGTGG,-0.184
23,GCGCCACC,-0.217
24,GCGCGGGA,-0.119
25,ATTTCATC,0.206

row,Sequence,PBM E-score
1,TATAATGA,0.158
2,CAGGAATC,0.188
3,CGTATCCC,-0.0898
4,AGAACCAG,-0.053
5,CGCACCAG,-0.104
6,ATTAAGTG,0.142
7,GGTTCAAA,0.0338
8,CAAAGTTC,-0.0221
9,CTTATTAA,0.0849
10,AGTATTCG,-0.0863
11,CAGGGCAG,-0.154
12,CATTGTGC,0.0753
13,CGGCGGCC,-0.198
14,TACTAACA,0.216
15,GCCCATCC,-0.28
16,AATCGGCT,0.0696
17,ACACCGCG,-0.0655
18,CCTTATCA,0.115
19,GAACCGGC,-0.08
20,CCTGTGAG,-0.143
21,ACATTCTC,0.233
22,ACCCAGAC,0.0146
23,CAGGAGAA,-0.0516
24,AATCCGTG,-0.135
25,CGTGCGGA,-0.0311

row,Sequence,PBM E-score
1,CTAGGTTC,-0.0861
2,GGTACACA,0.267
3,CACAGATG,-0.0665
4,AGTAGACT,-0.0196
5,GACGTTCC,-0.0725
6,GAATACTA,0.105
7,ATAGGTTA,-0.0136
8,GACGAGGC,-0.0771
9,TCTTCCAA,0.0213
10,TAGCCACA,0.12
11,AACACCTT,0.0109
12,AAACATCG,-0.12
13,CAGCATAA,0.0378
14,CATAAAAA,0.181
15,CCTAAATC,0.0761
16,GGATTCAA,-0.0688
17,CGGTCCTA,-0.185
18,TGGGGAAA,-0.0201
19,ACATTGCT,0.234
20,CTTGTTGA,0.0213
21,AATTCTAA,0.0582
22,CAATAATG,-0.0285
23,GAAGACAA,0.36
24,TGAAGAAA,0.104
25,TCCTATAA,0.0275

row,Sequence,PBM E-score
1,GCCTAGAA,-0.0236
2,CTATCCGA,0.0185
3,CCACATCC,-0.178
4,CAGACTGG,-0.0288
5,ACATGTTG,0.235
6,CCAAATCC,-0.135
7,GCGAGGGA,-0.159
8,ACATTTCC,0.329
9,GATTCAGC,-0.127
10,GCCACGCC,-0.281
11,ATAGCGTC,-0.00515
12,CTACAGGC,-0.112
13,CACTTCGA,0.0238
14,CAAAAATA,0.203
15,GGTTGTAC,-0.069
16,ATGAACGC,0.037
17,GTCGAAAC,-0.0791
18,ACTGGCTC,-0.193
19,AATCAACG,0.032
20,ACGTTCGC,-0.146
21,TATGGACA,0.476
22,AGAACGGC,0.134
